# Measurements taken from PubChem BioAssay AID588453 (National Center for Advancing Translational Sciences (NCATS), 2011).
# “And” between values parts separate entries of the source, which are not always exact repeats. Equal entries are not always repeated. About 4,000 (1%) of roughly 390,000 compounds were called active. The shares of active, inactive and inconclusive entries below differ from those in the screen. Calls come from the whole dose curve; as a rule, active = well fitted inhibition curve with a large enough effect; inconclusive = small, poorly fitted or top-dose-only effect; inactive = no such curve, though single readings can be large or run the other way. Potencies beside an inconclusive call are fits to weak or partial responses and may not hold up.
# Biological target: Thioredoxin reductase 1, cytoplasmic (Rattus norvegicus) (UniProt O89049)
# Experiment: qHTS Assay for Inhibitors of Mammalian Selenoprotein Thioredoxin Reductase 1 (TrxR1): qHTS; note: nearly all actives have a fitted effect of over 65% in size
# Conditions: recombinant rTrxR1, NADPH fluorescence consumption, selenite substrate; series mostly up to 114 µM; activity change, negative = inhibition: at the top concentration
# In short: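 Rat TrxR1 (90 nM in the dispensed reagent) was pre-reduced with 400 uM NADPH for 5 min at room temperature, then incubated with compound for 15 min. After 400 uM selenite was added, NADPH fluorescence (Ex 340/Em 450 nm) was followed for 8 min.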
# % is set by controls: 0 for no effect and ±100 for the full control effect; potency is the fitted concentration of half-maximal effect; tags give direction and shape of the fitted curve.
# UniProt O89049, sequence (O89049 whole entry, looked up): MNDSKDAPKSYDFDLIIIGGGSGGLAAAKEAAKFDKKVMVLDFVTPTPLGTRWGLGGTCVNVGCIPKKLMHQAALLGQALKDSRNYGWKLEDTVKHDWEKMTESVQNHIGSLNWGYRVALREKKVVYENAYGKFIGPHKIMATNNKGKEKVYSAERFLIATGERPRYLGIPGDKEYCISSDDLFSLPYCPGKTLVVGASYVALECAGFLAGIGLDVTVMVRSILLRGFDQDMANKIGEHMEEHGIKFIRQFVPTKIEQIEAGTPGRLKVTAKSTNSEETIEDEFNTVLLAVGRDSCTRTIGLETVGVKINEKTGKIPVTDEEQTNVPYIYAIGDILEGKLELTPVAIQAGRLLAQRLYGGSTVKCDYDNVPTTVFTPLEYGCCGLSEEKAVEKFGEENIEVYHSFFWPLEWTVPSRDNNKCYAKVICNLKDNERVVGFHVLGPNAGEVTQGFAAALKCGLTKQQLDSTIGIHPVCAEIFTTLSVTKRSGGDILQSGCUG
SMILES,Potency,"activity change, negative = inhibition"
Cc1cc(C)nc(N/N=C/C=C/c2ccccc2)n1,"inconclusive: 50.1 µM [inhibitor, partial curve]",
Cc1c(C(=O)OCC2CCCO2)[nH]c2c1C(=O)CC(c1ccco1)C2 (stereo unspecified),"inconclusive: 31.6 µM [inhibitor, partial curve, poor fit]",
COC(=O)C1=C(C)N=c2s/c(=C/c3ccoc3)c(=O)n2C1c1ccccc1 (stereo unspecified),"inconclusive: 70.8 µM [inhibitor, single point]",
CC(=O)c1ccc(-c2ccc(C(=O)N3CCCc4ccccc43)o2)cc1,,inactive: 21.9% [at 57.1 µM]
O=C(O)c1cccc(Nc2cc(Cl)c3nonc3c2[N+](=O)[O-])c1,active: 1.41 µM,
CCOC(=O)c1ccc(NC(=S)NCc2cccnc2)cc1,"inconclusive: 70.8 µM [inhibitor, single point]",
CCN1C(=O)C(CC(=O)N2CCN(C(c3ccccc3)c3ccccc3)CC2)N(CC)C1=O (stereo unspecified),"inconclusive: 15.8 µM [inhibitor, full curve, poor fit]",
Cc1ccc(C)c(NC(=O)Cn2c(=O)n(Cc3ccc4c(c3)OCO4)c(=O)c3oc4ccccc4c32)c1,,inactive: 24.3%
O=C(CCCC(=O)NC1CCCC1)NC1CCCC1,,inactive: 11.6%
CCc1cccc(C)c1Nc1c(-c2ccsc2)nc2ncccn12,,inactive: -5.4%
Cc1nn(Cc2ccc(Cl)cc2)c(C)c1NC(=O)c1cc(-c2ccc3c(c2)OCO3)on1,,inactive: 18.1%
O=c1c2c(-c3cccs3)csc2ncn1-c1ccc(Br)cc1,,inactive: 7.64% [at 57.1 µM]
Cc1[nH][nH]c(=O)c1C(c1ccc(-c2cccc(Cl)c2)o1)c1c(C)[nH][nH]c1=O,"inconclusive: 31.6 µM [inhibitor, partial curve]",
CS(=O)(=O)c1ccc(C(=O)OCC(=O)NCC2CCCO2)cc1[N+](=O)[O-] (stereo unspecified),active: 3.55 µM,
C#CCOCCOCCOCCNc1nc(N2CCN(C(=O)C([C@@H](C)CC)n3cc(C(N)CO)nn3)CC2)nc(N2CCN(C(=O)C([C@@H](C)CC)n3cc(C(N)COC(=O)C(F)(F)F)nn3)CC2)n1 (stereo partly specified),"inconclusive: 50.1 µM [inhibitor, partial curve]",
CCC1CN(C(=O)N2CCC(C(=O)N3CCN(c4ccccc4F)CC3)CC2)c2ccccc2O1 (stereo unspecified),,inactive: -2.82%
CC(=O)Nc1ccc(-c2csc(N/N=C(/C)c3ccccc3)n2)cc1,"inconclusive: 44.7 µM [inhibitor, partial curve, poor fit]",
CC(=O)N1CCN(C(=O)c2ccc(-n3c(C)ccc3C)cc2)CC1,"inconclusive: 79.4 µM [inhibitor, single point]",
CC(=O)Oc1c(C)cc(Cl)cc1C(=O)Nc1ccc([N+](=O)[O-])cc1Cl,,inactive: 17.3%
Cc1cc2c(c(=O)n1Cc1ccco1)C(c1cccnc1)C(C#N)=C(N)O2 (stereo unspecified),"inconclusive: 44.7 µM [inhibitor, partial curve]",
Cc1ccc(NC2CC(=O)N(c3ccc(C)cc3)C2=O)cc1 (stereo unspecified),active: 25.1 µM,
COc1nn(-c2ccccc2)c(=O)c(Cl)c1Cl,"inconclusive: 20 µM [inhibitor, single point]",

SMILES,Potency,"activity change, negative = inhibition"
O=C(OCC(=O)N1CCN(C(=O)c2ccco2)CC1)c1ccccc1C(=O)c1ccccc1,"inconclusive: 12.6 µM [inhibitor, partial curve]",
CCOC(=O)c1cccc(NC(=O)CCn2cccc2)c1,"inconclusive: 1.41 µM [inhibitor, full curve, poor fit]",
O=C(CN1C(=O)C2CCCCC2C1=O)Nc1ccccc1C(=O)O (stereo unspecified),"inconclusive: 89.1 µM [inhibitor, single point]",
CN=C(c1ccco1)n1c(=S)nc(-c2ccco2)n(C)c1=S,"inconclusive: 4.47 µM [inhibitor, partial curve, poor fit]",
O=C(Sc1n[nH]c(=O)[nH]c1=O)c1ccccc1,"inconclusive: 50.1 µM [inhibitor, partial curve]",
O=C(NNC(=S)NC(=O)c1cccc([N+](=O)[O-])c1)c1ccc(Br)cc1,"inconclusive: 15.8 µM [inhibitor, full curve]",
O=C(COC(=O)c1ccc(F)c([N+](=O)[O-])c1)NC(=O)NCc1ccccc1,"inconclusive: 31.6 µM [inhibitor, full curve, poor fit]",
O=C(OCn1ncc(Cl)c(Cl)c1=O)c1cccc(C(F)(F)F)c1,active: 15.8 µM,
COc1ccc(-c2onc3ccc(C(=O)/C=C/N(C)C)cc23)cc1,,inactive: -24.4%
CC(=O)c1ccc(NC(=O)C(C)Sc2nnc(-c3ccncc3)n2C2CC2)cc1 (stereo unspecified),,inactive: -5.93% [at 57.1 µM]
CCCCCCCCCCCCN1C/C(=C\C(=O)OCC)c2cc(C(F)(F)F)ccc2S1(=O)=O,"inconclusive: 70.8 µM [inhibitor, partial curve] and inconclusive: 15.8 µM [inhibitor, partial curve, poor fit]",
Cc1ccc(Cn2c(C)c3cnn(CC(=O)NCCc4ccc(Cl)cc4)c(=O)c3c2C)cc1,"inconclusive: 70.8 µM [inhibitor, partial curve, poor fit]",
CCc1sc(-c2cc3ccc(O)cc3oc2=O)nc1-c1ccc(C)cc1,,inactive: 17.4%
COc1cccc(CCNC(=O)c2cnc3sc(N4CCOCC4)nn3c2=O)c1,,inactive: 9.2%
Cc1ccccc1C(=O)N1CCN(c2ccc(NC(=O)c3ccc([N+](=O)[O-])o3)cc2)CC1,,inactive: -7.72%
COc1ccc(/C=N/N2C(=O)CSC2=S)cc1Br,,inactive: 3.11% [at 57.1 µM]
CC(=O)Nc1ccc(-c2csc(NNC(=O)c3ccc(C)cc3)n2)cc1,"inconclusive: 44.7 µM [inhibitor, partial curve]",
CCOC(=O)C1(Cc2ccc(O)cc2)NC(c2ccco2)C2C(=O)N(c3ccccc3F)C(=O)C21 (stereo unspecified),"inconclusive: 8.91 µM [inhibitor, partial curve, poor fit]",
O=C(C1CCCN1S(=O)(=O)c1cccc2cccnc12)N1CCN(c2ccccc2)CC1 (stereo unspecified),"inconclusive: 70.8 µM [inhibitor, partial curve]",
O=C(COC(=O)c1ccc([N+](=O)[O-])s1)Nc1ccc(F)cc1,"inconclusive: 56.2 µM [inhibitor, single point]",
Cn1c2c(c(=O)n(C)c1=O)C1c3ccccc3OCC1C(C)(C)O2 (stereo unspecified),"inconclusive: 39.8 µM [inhibitor, single point]",
COc1ccc(OC)c(/C=c2\sc3nc(-c4cccs4)nn3c2=O)c1,"inconclusive: 22.4 µM [inhibitor, full curve]",

SMILES,Potency,"activity change, negative = inhibition"
Cc1n[nH]c(=S)n1/N=C/c1ccccc1,"inconclusive: 20 µM [inhibitor, partial curve, poor fit]",
Cc1nc(NC(=O)C2CCCC2)sc1Cc1ccc2c(c1)OCO2,,inactive: 10.9%
COc1cccc(C(c2c(O)nc(SC)n(C)c2=O)c2c(O)nc(SC)n(C)c2=O)c1,"inconclusive: 12.6 µM [inhibitor, partial curve]",
Cn1c(=O)c2c(nc(NCCc3ccccc3)n2CC(=O)NCCc2ccccc2)n(C)c1=O,,inactive: -2.95%
O=C(CCN1CCC(c2ccccc2)C1)c1ccccc1 (stereo unspecified),"inconclusive: 0.282 µM [inhibitor, full curve, poor fit]",
Cc1ccc2cc(CN(C(=O)c3ccco3)c3ccccc3C)c(=O)[nH]c2c1,"inconclusive: 20 µM [inhibitor, single point]",
Cc1c(CC(=O)NCCCCCC(=O)O)c(=O)oc2cc3c(cc12)CCC(C)(C)O3,"inconclusive: 25.1 µM [inhibitor, single point]",
O=[N+]([O-])c1cc(-c2nc(-c3ccccc3)no2)ccc1N1CCOCC1,,inactive: 7.49%
COc1cccc(-c2nn3c(-c4ccco4)nnc3s2)c1,"inconclusive: 12.6 µM [inhibitor, partial curve, poor fit]",
Cc1ccc(C(=O)CN2C(=O)c3ccccc3S2(=O)=O)cc1,,inactive: 0.156%
CC(C)CC1(C(=O)NCCc2c[nH]c3ccccc23)C=CCN1C(=O)c1ccccc1 (stereo unspecified),"inconclusive: 89.1 µM [inhibitor, single point]",
C#CCOCCOCCOCCNc1nc(N2CCN(C(=O)[C@H](CCCCN)n3cc([C@@H](N)CC(C)C)nn3)CC2)nc(N2CCN(C(=O)[C@H](Cc3cc4ccccc4[nH]3)n3cc([C@@H](N)Cc4ccc(O)cc4)nn3)CC2)n1,active: 44.7 µM,
Cc1ccc(-n2c(N)c(-c3nc4ccccc4n3C)sc2=S)cc1,,inactive: -14.5%
CN1CCC(=NNc2ccc(S(=O)(=O)N3CCOCC3)cc2[N+](=O)[O-])CC1,"inconclusive: 39.8 µM [inhibitor, partial curve, poor fit]",
Cc1c(S(=O)(=O)c2ccccn2)c(N)n(Cc2ccccc2)c1C,active: 11.2 µM,
CCC(=O)Oc1ccc2c(C)c(Cl)c(=O)oc2c1,"inconclusive: 14.1 µM [inhibitor, partial curve, poor fit]",
CN(C)/C=C/C1=C([N+](=O)[O-])C(c2cccc([N+](=O)[O-])c2)NC(=O)N1 (stereo unspecified),"inconclusive: 56.2 µM [inhibitor, partial curve]",
N#Cc1ccccc1NC(=S)NC(=O)C1CCC1,"inconclusive: 22.4 µM [inhibitor, full curve]",
COc1ccccc1-c1nnc(NC(=O)c2ccc(S(=O)(=O)N3CCOCC3)cc2)o1,,inactive: 9.43% [at 57.1 µM]
COc1ccccc1CN1CCNC(=O)C1CC(=O)NC1CCCCCC1 (stereo unspecified),"inconclusive: 70.8 µM [inhibitor, partial curve]",
COc1ccc2sc(-c3ccc(N(C)C)cc3)c(C#CC(C)(C)O)c2c1,"inconclusive: 10 µM [inhibitor, partial curve]",
COc1cc(C2C(C(=O)c3cc4ccccc4o3)=C(O)C(=O)N2c2cc(C)on2)cc(OC)c1OC (stereo unspecified),"inconclusive: 79.4 µM [inhibitor, single point]",
